Assay results from the supplement of paper PMC10126150.
Values marked as one replicate rest on one cluster of the flow cell; about a third of the high ones do not repeat.

System: ATP
Test: switch fluorescence ratio, 500 uM ATP over buffer (Cy3 cluster intensity, sum of 5 cycles each) (fold (ratio)); higher = stronger signal-on switching upon ATP binding; sequences stand for … in TCGTCGGCAGCGTCAGATGTGTATAAGAGACAGTTTTTTTTTTTTTTTTTTTTTTTTT…TC
Conditions: aptamer strand: ATP DNA aptamer (quencher-CACCTGGGGGAGTATTGCGGAGGAAGG + anchor), 100 nM annealed; ATP concentration: 500 uM; one replicate
Procedure, shortened: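 Clusters carrying Cy3-labelled switching strands on a modified Illumina MiSeq flow-cell were annealed to 100 nM quencher-labelled ATP aptamer and imaged in selection buffer. They were imaged again after 15 min with 500 uM ATP at 22 °C, over five buffer/ATP cycles with NaOH stripping and re-annealing in between. For each cluster, the fluorescence ratio is the summed Cy3 intensity of the target cycles divided by that of the buffer cycles, averaged per switch-domain sequence. Clusters outside 100-1000 RFU were left out.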
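Further: ATP exposure 15 min at 22 °C before imaging.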

| Sequence | switch fluorescence ratio |
| --- | --- |
| TCCGGGAGGC | 1.32 |
| TCCGGGAGTA | 1.12 |
| TCCGGGCGAG | 1.11 |
| TCCGGGCTAT | 1.99 |
| TCCGGGGTGA | 2.25 |
| TCCGGTGCCA | 0.965 |
| TCCGGTGGAT | 1.03 |
| TCCGGTTT | 0.972 |
| TCCGTACGTC | 1.45 |
| TCCGTCACAT | 1.41 |
| TCCGTCATCC | 1.57 |
| TCCGTCATTT | 1.16 |
| TCCGTCGGCT | 1.06 |
| TCCGTGTATA | 1.04 |
| TCCGTGTGAG | 0.958 |
| TCCGTTCGAC | 1.72 |
| TCCGTTGAAG | 1.01 |
| TCCTAAAAAG | 1.01 |
| TCCTAGAATT | 1.02 |
| TCCTATGTGG | 1.03 |
| TCCTCAAAAG | 0.987 |
| TCCTCACCG | 1.11 |
| TCCTCACGAA | 2.61 |
| TCCTCACTGG | 1.12 |
| TCCTCCTTTT | 1 |

| Sequence | switch fluorescence ratio |
| --- | --- |
| TCCTCGGATG | 1.02 |
| TCCTCTACTG | 1.15 |
| TCCTGAAGCT | 1.05 |
| TCCTGACACG | 1.09 |
| TCCTGACTTG | 1.05 |
| TCCTGAGCGC | 0.93 |
| TCCTGGGGA | 1.29 |
| TCCTGGGTGG | 1.08 |
| TCCTTATATT | 1.04 |
| TCCTTATCGA | 1 |
| TCCTTGAACG | 0.999 |
| TCCTTGAGGA | 0.945 |
| TCCTTTATAT | 0.994 |
| TCCTTTCCCA | 1.04 |
| TCCTTTCCCT | 1.05 |
| TCCTTTGCAT | 3.11 |
| TCGAAAGGAT | 0.972 |
| TCGAAAGTCG | 0.974 |
| TCGAACCAAC | 1.2 |
| TCGAACCCTC | 1.01 |
| TCGAACGTAC | 1.75 |
| TCGAAGCGG | 1.04 |
| TCGAATCTTC | 1.05 |
| TCGAATTTCT | 0.979 |
| TCGACCAGAC | 3.88 |

| Sequence | switch fluorescence ratio |
| --- | --- |
| TCGACTCGAA | 1.03 |
| TCGAGAATAT | 0.977 |
| TCGAGGAGTC | 0.992 |
| TCGAGGTGC | 0.986 |
| TCGAGTCCGG | 1.03 |
| TCGATAAGTT | 1.02 |
| TCGATAGGCT | 0.959 |
| TCGATAGGTG | 1.06 |
| TCGATCGGA | 1.01 |
| TCGATCTTGA | 1.01 |
| TCGATGTTCC | 1.03 |
| TCGCAAAGGG | 1.59 |
| TCGCACCGC | 1.38 |
| TCGCACGGAA | 1.29 |
| TCGCAGAAGA | 1 |
| TCGCAGGTGG | 0.964 |
| TCGCAGGTT | 1.36 |
| TCGCATTATT | 1.58 |
| TCGCCAGGCA | 1.01 |
| TCGCCTGTCT | 1.02 |
| TCGCGCACAA | 1.04 |
| TCGCGCCACT | 2.28 |
| TCGCGGTCAC | 2.13 |
| TCGCTACGAT | 1.17 |
| TCGCTCACGC | 1.06 |

| Sequence | switch fluorescence ratio |
| --- | --- |
| TCGCTCATCG | 0.988 |
| TCGCTCCATT | 1.04 |
| TCGCTGCCCG | 1.03 |
| TCGCTGCGTC | 0.953 |
| TCGCTTAAT | 1.06 |
| TCGCTTGAGT | 0.99 |
| TCGCTTTGCG | 0.979 |
| TCGGACAAGC | 1.11 |
| TCGGACTGG | 1 |
| TCGGAGCGC | 0.91 |
| TCGGAGCTAA | 5.07 |
| TCGGAGGT | 0.987 |
| TCGGCAACTC | 1.95 |
| TCGGCCACTT | 1.04 |
| TCGGCTAGTT | 1.01 |
| TCGGCTTTTG | 1 |
| TCGGGACACG | 0.99 |
| TCGGGCACTG | 1.05 |
| TCGGGCTCAA | 1.02 |
| TCGGGCTTCG | 1 |
| TCGGGGCATT | 1.04 |
| TCGGGGTAGA | 1.03 |
| TCGGGGTTAG | 0.986 |
| TCGGGTCATC | 1.01 |
| TCGGGTTCGT | 1.02 |
